Hit rate of the full screen: of about 310,000 compounds, about 14,000 (4.5%) showed an effect of 50% or more. The effect is printed as a negative number. Some of the results follow.
target: human ether-à-go-go-related gene (hERG) potassium channel (human, UniProt Q12809); assay: primary screen, population patch clamp on CHO cells stably expressing hERG
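Note: peak tail current of the secondary pulse compared with the same well before compound.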

Chain of human ether-à-go-go-related gene (hERG) potassium channel (Q12809 whole entry, looked up): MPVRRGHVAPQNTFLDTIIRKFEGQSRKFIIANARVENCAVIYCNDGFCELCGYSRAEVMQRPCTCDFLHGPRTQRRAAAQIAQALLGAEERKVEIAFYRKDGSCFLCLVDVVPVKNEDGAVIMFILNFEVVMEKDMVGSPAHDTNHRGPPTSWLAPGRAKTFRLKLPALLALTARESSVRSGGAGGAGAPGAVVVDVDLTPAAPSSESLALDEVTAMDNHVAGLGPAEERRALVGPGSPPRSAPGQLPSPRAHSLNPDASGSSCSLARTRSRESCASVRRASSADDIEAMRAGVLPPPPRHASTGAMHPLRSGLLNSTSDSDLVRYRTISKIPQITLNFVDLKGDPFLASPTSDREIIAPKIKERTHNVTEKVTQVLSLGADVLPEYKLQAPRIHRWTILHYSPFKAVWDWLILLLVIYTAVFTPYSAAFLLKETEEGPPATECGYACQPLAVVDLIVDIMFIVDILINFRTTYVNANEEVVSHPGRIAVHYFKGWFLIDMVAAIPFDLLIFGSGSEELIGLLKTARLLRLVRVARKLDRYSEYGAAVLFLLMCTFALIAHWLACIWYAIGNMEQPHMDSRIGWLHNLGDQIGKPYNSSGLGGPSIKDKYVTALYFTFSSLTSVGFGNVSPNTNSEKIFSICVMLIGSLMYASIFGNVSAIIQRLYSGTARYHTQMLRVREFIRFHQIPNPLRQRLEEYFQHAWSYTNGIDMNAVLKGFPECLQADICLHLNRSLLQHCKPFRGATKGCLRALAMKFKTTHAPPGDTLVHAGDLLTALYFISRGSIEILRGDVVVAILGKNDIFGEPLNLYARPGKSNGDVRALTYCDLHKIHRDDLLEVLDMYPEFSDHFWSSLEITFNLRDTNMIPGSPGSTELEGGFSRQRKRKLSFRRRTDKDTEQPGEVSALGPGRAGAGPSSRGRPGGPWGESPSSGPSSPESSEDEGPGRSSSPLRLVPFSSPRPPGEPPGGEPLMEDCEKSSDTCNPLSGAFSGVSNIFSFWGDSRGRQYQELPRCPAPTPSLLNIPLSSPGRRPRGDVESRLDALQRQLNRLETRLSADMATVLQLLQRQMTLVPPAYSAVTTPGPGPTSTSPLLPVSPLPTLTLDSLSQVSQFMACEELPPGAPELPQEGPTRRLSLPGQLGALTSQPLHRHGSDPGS

SMILES | hERG current change (%, negative = inhibition) at 10uM [%]
CCCc1c(C(=O)N/N=C/c2ccc(OC)c(OCc3ccccc3)c2)nnn1-c1nonc1N | 7.71
O=C(c1ccccc1Cl)N1CCC(c2nc3c(nnn3Cc3ccco3)c(=O)[nH]2)CC1 | -22.1
O=[N+]([O-])c1ccccc1N(CC1CO1)S(=O)(=O)c1ccccc1 (stereo not drawn) | 2.02
Cc1ccc(Nc2nc(N)c(C#N)c(CC#N)c2C#N)cc1 | -3.61
CC[C@]12CCCN3CCc4c(n(c5ccccc45)C(=O)C1)[C@@H]32 | -75
O=C(CSc1nc2c(c(=O)n1-c1ccc(F)cc1)SCC2)Nc1ccc2c(c1)OCO2 | -2.35
O=C(c1ccc2c(c1)OCCO2)C1CCN(C(=O)Nc2ccc(F)cc2)CC1 | -6.26
O=C(CNC(=O)c1cccs1)OCC(=O)c1ccccc1Cl | 17.2
COCCN(C(=O)c1ccccc1Oc1ccccc1)c1c(N)n(CC(C)C)c(=O)[nH]c1=O | 8.21
O=C(Nc1cccc(C(=O)N2CCOCC2)c1)c1ncn[nH]1 | 10
Cc1cccc(N2C(=N)SCC2=O)c1C | 13.3
N#C/C(=C\c1ccc(Cl)cc1)C(=O)NC1CC1 | 0.943
Cc1cccc(C(=O)NNC(=O)CSc2nnc(C(C)C)n2C)c1 | 8.68
COc1ccc(NC(=S)NCCc2ccccc2)c(C)c1 | -1.17
COc1cccc(-c2nc(-c3ccccn3)no2)c1OC | 0.968
COCc1cc(C)nc(SCC(=O)N2CCC(C)CC2)c1C#N | 2.86
CC1(C)C(C=C(Cl)Cl)C1C(=O)N(Cc1cccc(Cl)c1)C1CCS(=O)(=O)C1 (stereo not drawn) | 4.24
CC(C)OC(=O)C1=C(N)N2C(=O)CSC2=C(C(=O)OC(C)C)C1 | 0.706
CCOc1ccccc1/C=N/Nc1nc2c(N)ncnc2n1[C@H]1O[C@@H](CO)[C@H](O)[C@@H]1O | -9.61
CCOc1cc(N2CCOCC2)c(OCC)cc1NC(=O)C1CC(=O)N(c2ccccc2OCC)C1 (stereo not drawn) | 3.54
O=C(NCc1ccc(F)c(F)c1)C1CCC(=O)N(CC2CCCCC2)C1 (stereo not drawn) | -17.4
O=C(Cc1ccc([N+](=O)[O-])cc1)N1CCN=C1SCc1ccccc1 | -7.33
CC(C)N1CCN(Cc2cnc(-c3ccccc3)s2)CC1CCO (stereo not drawn) | -9.9
CCC(=O)Nc1c(C(=O)Nc2ccc3c(c2)OCCO3)oc2ccccc12 | 2.97

Source: paper PMC4336329 (PLoS ONE, 2015)
